In all, about 45,000 compounds went through this assay and about 200 (0.44%) were called active. About 7% were inconclusive and are not listed. Calls come from the whole dose curve; as a rule, active = well fitted activation curve with a large enough effect; inconclusive = small, poorly fitted or top-dose-only effect; inactive = no such curve, though single readings can be large or run the other way. The list shows a part of the results.
experiment: qHTS of TDP-43 Inhibitors: NCGC Sytravon Library Screen; conditions: yeast TDP-43 toxicity rescue, BacTiter-Glo growth, 24 h; series mostly up to 46.1 µM; growth rescue (activation): at the top concentration; note: nearly all actives have a fitted effect of over 55% in size; for growth rescue (activation): 0% is about no effect
Method in brief: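 TDP-43-expressing yeast, pregrown in raffinose, seeded at OD600 0.02 in galactose medium with compound for 24 hr at 30 deg C. Growth read by BacTiter-Glo luminescence, so rescue of toxicity appears as activation.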
Potency is the fitted concentration of half-maximal effect.

Structure (SMILES) | growth rescue (activation) | Potency
CCC(c1nnc(SCC(=O)Nc2ccc(C(C)=O)cc2)n1C1CCCCC1)N(C)C (stereo unspecified) | inactive: 6.72% | –
O=[N+]([O-])c1ccccc1C1Nc2cccc3cccc(c23)N1 | inactive: 29.9% | –
COCCNC(=S)N/N=C/c1ccc(N2CCOCC2)cc1 | inactive: 9.47% | –
COCCn1c(C)cc(C2=NNC(=NC(C)(C)C)SC2)c1C | inactive: -6.97% | –
CC(C)N(Cc1cc2ccccc2[nH]c1=O)C(=O)C1CCCCC1 | inactive: 6.47% | –
O=C(CNC(=O)C1COc2ccccc2O1)N/N=C/c1cc(Br)c(O)c(Br)c1 (stereo unspecified) | inactive: -2.21% | –
CCOC(=O)c1c(NC(=O)C2(C)Cc3ccccc3C(=O)O2)sc2c1CCCC2 (stereo unspecified) | inactive: -6.99% | –
Cc1ccc(C(=O)Nc2cccc(C(=O)N/N=C/c3ccc(O)cc3)c2)cc1 | inactive: -7.01% | –
C/C(=N\NC(=O)CSc1nnc(C)s1)c1ccc(Cl)cc1 | inactive: 18.3% | –
CCc1ccc(CN(Cc2ccco2)C(=O)c2cc(-c3ccc(C)c(F)c3)on2)cc1 | inactive: 7.91% | –
COc1ccc(NC(=O)C2(C)Cc3c(-c4ccc(N(C)C)cc4)ccnc3O2)cc1OC (stereo unspecified) | inactive: -8.2% | –
O=C(NCc1cccs1)C1CCCN1C(=O)Nc1cccc(F)c1 (stereo unspecified) | inactive: 4.41% | –
O=[N+]([O-])c1ccc(N2CCCCC2)cc1NCCOc1ccccc1 | inactive: -8.69% | –
CCOC(=O)N1CCN(Cc2nc(-c3cccc(Cl)c3)no2)CC1 | inactive: 19.1% | –
Cc1ccc(NC(=O)c2cc(-c3ccccc3)nn2-c2ccccc2)c(Br)c1 | inactive: 2.87% | –
Cc1ccc(NC(=O)CCNC(=O)Cn2ccc3ccccc3c2=O)cc1F | inactive: -11.8% | –
COc1ccc(OC)c(S(=O)(=O)N2CCC(C(=O)NCc3cccnc3)CC2)c1 | inactive: 9.19% | –
O=C(NCc1cccs1)c1cc(S(=O)(=O)N2CCOCC2)ccc1N1CCCC1 | inactive: 8.16% | –
COc1ccc(N=Cc2oc3ccc4ccccc4c3c2O)cc1 | inactive: 6.7% | –
CCc1nc(Cl)c(C#N)c2c1CCCC2 | inactive: 16.6% | –
CCC(=O)N1CCCC(C)(C(=O)Nc2nccc3ccccc23)C1 (stereo unspecified) | inactive: 7.14% | –
O=C(Cc1c(F)cccc1Cl)Nc1ccccc1-c1ccccc1 | inactive: -12.1% | –

Structure (SMILES) | growth rescue (activation) | Potency
COc1ccccc1OCc1ccc(C(=O)OCC2CCCO2)o1 (stereo unspecified) | inactive: 6.19% | –
Cc1c2cnn(-c3ccccc3)c(=O)c2c(C)n1CCCC(=O)NCCN1CCN(C)CC1 | inactive: -6.72% | –
CC(=O)Nc1ccc(Nc2ncc([N+](=O)[O-])c(Nc3ccc(NC(C)=O)cc3)n2)cc1 | inactive: 13.5% | –
Cc1ccc(-n2cc(CNCCCN3CCCC3=O)c(-c3ccc(F)cc3)n2)cc1 | inactive: 6.07% | –
Cc1cccc(N2CC(C(=O)Nc3ccc(S(=O)(=O)N4CCOCC4)cc3)CC2=O)c1C (stereo unspecified) | inactive: -2.36% | –
COc1cc(C(=O)NCCNC(=O)c2ccc(C)nc2)cc(OC)c1OC | inactive: 18.4% | –
Cc1sc(NC(=O)c2ccccc2)c(C(c2ccc(Cl)cc2)N2CCN(CCO)CC2)c1C (stereo unspecified) | inactive: 10.3% | –
Cc1c([N+](=O)[O-])cc(C(=O)NCc2ccc(F)cc2)cc1[N+](=O)[O-] | inactive: 14.1% | –
O=C(CSc1ccc(F)cc1)NNC(=O)c1ccccc1Br | inactive: 10.4% | –
Cc1cc(C)c(NC(=O)C2CCCO2)c(C)c1NC(=O)C1CCCO1 (stereo unspecified) | inactive: -1.3% | –
O=C(CCCc1ccccc1)NC1CC(=O)N(c2cccc(F)c2)C1 (stereo unspecified) | inactive: 12.5% | –
CCOCCCn1c(=N)c(S(=O)(=O)c2ccc(C)cc2)cc2c(=O)n3cc(C)ccc3nc21 | inactive: 2.73% | –
CCNC(=O)C1(C)CCN(C(=O)c2ccccc2OC(F)(F)F)C1 (stereo unspecified) | inactive: 1.84% | –
Cc1csc2nc(COC(=O)c3ccc(Cl)c([N+](=O)[O-])c3)cc(=O)n12 | inactive: 12.8% | –
CCOC(=O)c1cc2c(=O)n3ccccc3nc2n(C)c1=NC(=O)c1c(-c2c(F)cccc2Cl)noc1C | inactive: 32.2% | –
CC(=O)Nc1ccc(-c2csc(NC(C)c3ccccc3)n2)cc1 (stereo unspecified) | inactive: 14.8% | –
COc1ccc(CNCc2cccc(Cl)c2)cc1 | inactive: -10.2% | –
CN(C)S(=O)(=O)c1ccc(NC(=O)C2CCCN(C(=O)c3ccc(Cl)cc3)C2)cc1 (stereo unspecified) | inactive: -1.02% | –
NC(=O)C1CCN(C(=O)C2(NC(=O)Nc3cccc(F)c3)CCCCC2)CC1 | inactive: 6.62% | –
C/C(CC(=O)Nc1ccccc1-c1ccccc1)=N\NC(=O)COc1ccc(C)cc1Br | inactive: 19.7% | –
Cc1nn(C)cc1S(=O)(=O)N1CCCC(C(=O)O)C1 (stereo unspecified) | inactive: 6.13% | –
CCc1nc2ccc(C(=O)NCCCN(C)C)cn2c1N(CC)CCOC | inactive: 2.38% | –

Structure (SMILES) | growth rescue (activation) | Potency
COCCCn1cnc2oc3nc4ccccc4nc3c2c1=O | inactive: 23.4% | –
COCCCNC(=O)c1cc2c(-c3cccc(OC)c3)nn(C)c2s1 | inactive: 21.6% | –
O=C(CN1C(=O)NC2(CCCC2)C1=O)N1CCc2ccccc2C1 | inactive: 0.557% | –
Cc1ccc(S(=O)(=O)N(C)C)cc1NC(=O)C(C)NC(C)c1cccs1 (stereo unspecified) | inactive: -9.78% | –
O=C(CN1CCOCC1)N1CCc2ccccc2C(c2ccccc2)C1 (stereo unspecified) | inactive: 15.2% | –
CCCN(CC(=O)Nc1cc(C)on1)S(=O)(=O)c1cccc(C(F)(F)F)c1 | inactive: 14.7% | –
COc1cccc(/C=N/Nc2snc(SC)c2C#N)c1O | inactive: -9.71% | –
COc1ccc(-c2cc(C(=O)N3CCCCC3C)no2)cc1OC (stereo unspecified) | inactive: 21.2% | –
O=C(O)c1ccc(CN2C[C@@H](CO)O[C@@H](n3cnc4c(NCc5ccc(F)cc5)ncnc43)C2)cc1 | inactive: 9.42% | –
CC(=O)Nc1ccc(S(=O)(=O)Nc2ccc3c(c2)OCCO3)cc1 | inactive: -4.61% | –
COc1ccc(OCC(=O)Nc2cc(S(=O)(=O)N3CCCCC3)ccc2OC)cc1 | inactive: 20.9% | –
O=C(CCC1CCCN(C(=O)c2ccc3c(c2)OCO3)C1)N1CCN(c2ccccn2)CC1 (stereo unspecified) | inactive: 0.842% | –
Cc1ccc2nc(-c3ccc(N4C(=NC(=O)CCC(=O)O)SC5CS(=O)(=O)CC54)cc3)sc2c1 (stereo unspecified) | inactive: 18.2% | –
N/C(=N\OC(=O)c1ccc([N+](=O)[O-])cc1)c1cccnc1 | inactive: -7.61% | –
O=C(NS(=O)(=O)Oc1cccc(F)c1)OC[C@@H]1CCCN2CCCCC12 (stereo partly specified) | inactive: 1.07% | –
CC1CCCN(CCCN2C(=O)C3C(C(=O)Nc4ccc(Cl)cc4)C4C=CC3(O4)C2C(=O)NC2CCCCC2)C1 (stereo unspecified) | inactive: 0.903% | –
COc1ccc(N2C(=S)NC3c4cc(Cl)ccc4OC2(C)C3C(=O)N(C)C)cc1 (stereo unspecified) | inactive: 5.78% | –
Cc1c(C(=O)Nc2ccc(Cc3ccncc3)cc2)cccc1[N+](=O)[O-] | inactive: 0.931% | –
CCOC(=O)c1ccc(CC2SC(N)=NC2=O)cc1 (stereo unspecified) | inactive: -10.5% | –
Fc1ccc2nc(N3CCCCC3)sc2c1 | inactive: -4.39% | –
COc1ccccc1C(=O)NCCC(=O)NC1CCCCCC1 | inactive: 10.3% | –
O=C(NC(=S)NCc1ccccc1)c1cccnc1 | inactive: 7.58% | –

Structure (SMILES) | growth rescue (activation) | Potency
COCCNc1nc(NCc2ccc(NC(C)=O)cc2)c2sccc2n1 | inactive: -1.15% | –
COc1ccc(NC(=O)c2oc3ccccc3c2CSC)cc1S(=O)(=O)N1CCOCC1 | inactive: 2.71% | –
CC(=O)OCC(=O)Nc1ccccc1C | inactive: 4.11% | –
Cc1ccc(CN(C)C(=O)c2c(C)nn(-c3ccccc3)c2C)cc1 | inactive: 2.94% | –
Nc1nc(-c2ccccc2)c(N=Nc2ccccc2Cl)s1 | inactive: 0.638% | –
COc1ccc(C)cc1NC(=O)c1ccc(CN2CCc3ccccc3C2)cc1 | inactive: 6.99% | –
COc1ccccc1C(=O)NC(=O)CSc1nc2nc(C)cc(C)n2n1 | inactive: 18% | –
O=C1C(Cc2ccccc2)SC(=Nc2ccccc2)N1c1ccccc1 (stereo unspecified) | inactive: 10.9% | –
Cn1cccc1C(=O)NCc1ccc(Cl)cc1 | inactive: 26.6% | –
O=C(Nc1cccc(Cl)c1Cl)c1csc([C@@H]2O[C@H](CO)[C@@H](O)[C@H]2O)n1 | inactive: 0.463% | –
O=C(Cc1ccc(Br)cc1)OCC(=O)N1CCCCCC1 | inactive: 24.2% | –
COc1ccc(CNC(=O)C(CCSC)NS(=O)(=O)c2ccccc2F)cc1 (stereo unspecified) | inactive: 16.3% | –
CC1CN(C2=N/C(=C/c3ccc4c(c3)OCO4)C(=O)N2)CC(C)O1 (stereo unspecified) | inactive: 1.7% | –
Nc1nnc(SCC(=O)OCc2ccc(F)cc2)s1 | inactive: -12.9% | –
CCOC(=O)NC(=O)CSc1ccc(C)cc1C | inactive: 22.6% | –
Cc1cnc(NC(=O)C2(C)CCN2C(=O)C(C)C)s1 (stereo unspecified) | inactive: 5.36% | –
O=C(NNc1c2ccccc2nc2ccccc12)c1ccccc1O | inactive: 3.96% | –
Cn1nc(C(=O)NCC(c2cccs2)N2CCOCC2)c2ccccc2c1=O (stereo unspecified) | inactive: -10.3% | –
O=C1c2ccccc2C2(c3ccc(F)cc3)NCCN12 (stereo unspecified) | inactive: 3.68% | –
CCCn1c(C(C)C)n[nH]c1=S | inactive: -2.65% | –
CCC(C)(C)NC(=O)C(c1cccn1C)N(C(=O)Cn1nnc2ccccc21)c1ccccc1OC (stereo unspecified) | inactive: 14.8% | –
CCCOc1ccc(C(=O)Nc2ccc(NC(=O)c3cccs3)cc2)cc1 | inactive: 7.71% | –

Structure (SMILES) | growth rescue (activation) | Potency
O=C1CSC(c2cn(-c3ccccc3)nc2-c2ccccc2)N1Cc1ccco1 (stereo unspecified) | inactive: 0.915% | –
Cc1ccc(S(=O)(=O)N2CCN(C(C)C(=O)NCC(C)c3ccccc3)CC2)cc1 (stereo unspecified) | inactive: 18.1% | –
CCOc1ccc(CNc2ccc(S(N)(=O)=O)cc2)cc1 | inactive: -21.2% | –
CCNC(=O)C1(C)CCCN(Cc2csc(-c3ccccc3)n2)C1 (stereo unspecified) | inactive: 21.7% | –
Cn1c(SCC(=O)N/N=C/C=C/c2ccccc2[N+](=O)[O-])nc2ccccc21 | inactive: 17.2% | –
CC(C)CCc1noc(CN2CCN(CC(=O)NC(C)C)CC2)n1 | inactive: 21.1% | –
COc1ccc(CCNC(=O)CSc2nnnn2Cc2ccc3c(c2)OCO3)cc1OC | inactive: -28.8% | –
COCCn1c(C)cc(C(=O)COC(=O)/C=C/c2ccc(OC)cc2OC)c1C | inactive: 15.3% | –
CCN=C1S/C(=C\c2cn(CC(=O)NCc3ccco3)c3ccccc23)C(=O)N1CC | inactive: 20.3% | –
CN(Cc1ccncn1)C(=O)CC1C(=O)NCCN1Cc1cccc(Oc2ccccc2)c1 (stereo unspecified) | inactive: 5.64% | –
COc1ccc(CC(=O)NC2CCSc3ccccc32)c(OC)c1 (stereo unspecified) | inactive: 27.5% | –
N#CC1=C(N)Nc2nc3ccccc3n2C1c1ccc(Cl)cc1 (stereo unspecified) | inactive: 11.3% | –
OCC1CCN(Cc2nc(Cc3ccccc3Cl)no2)CC1 | inactive: 0.263% | –
O=C1CCC(=O)N1N1C(=O)C2C3c4ccccc4C(c4ccccc43)C2C1=O (stereo unspecified) | inactive: 0.461% | –
O=C(CN1C(=O)NC2(CCCCCCC2)C1=O)NCc1cccs1 | inactive: 18% | –
COc1ccccc1N/C(N)=N/c1nc(C(F)(F)F)cc(=O)[nH]1 | inactive: 11% | –
COc1ccccc1NS(=O)(=O)c1cc(NC(=O)c2ccncc2)ccc1N1CCOCC1 | inactive: 4.68% | –
Cc1cccc(Nc2nnc(SCC(=O)Nc3ccccc3[N+](=O)[O-])s2)c1C | – | active: 17.8 µM
